{"source": "PubChem BioAssay (Tox21)", "key": {"[1]": {"experiment": "Human pregnane X receptor (PXR) small molecule agonists, qHTS cell viability counter screen (AID 1346977); note: nearly all actives have a fitted effect of over 50% in size", "procedure,_shortened": "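Cytotoxicity counter screen run in the same wells as the PXR luciferase assay, using PXR-Luc HepG2 cells in charcoal-stripped serum medium. Viability: CellTiter-Fluor fluorescence after 24hr compound treatment.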"}, "[2]": {"experiment": "Caspase-3/7 induction in CHO-K1 cells by small molecules, qHTS cell viability counter screen (AID 1346979); note: nearly all actives have a fitted effect of over 35% in size", "procedure,_shortened": "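Cytotoxicity counter screen run in parallel with the caspase-3/7 assay: CHO-K1 cells, 16hr compound treatment at 37C, then CellTiter-Fluor for 1hr before fluorescence reading.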"}, "[3]": {"experiment": "Caspase-3/7 induction in HepG2 cells by small molecules, qHTS cell viability counter screen (AID 1346981); note: nearly all actives have a fitted effect of over 30% in size", "procedure,_shortened": "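The parent HepG2 line is plated at 2,000 cells per well and rested 5 hr before compound pinning from DMSO stocks. Following a 16-hr treatment at 37 C, a fluorogenic live-cell substrate (CellTiter-Fluor) reports viability after 1 hr.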"}, "[4]": {"target": "Nuclear receptor subfamily 1 group I member 2 (Homo sapiens) (UniProt O75469)", "sequence (O75469 whole entry, looked up)": "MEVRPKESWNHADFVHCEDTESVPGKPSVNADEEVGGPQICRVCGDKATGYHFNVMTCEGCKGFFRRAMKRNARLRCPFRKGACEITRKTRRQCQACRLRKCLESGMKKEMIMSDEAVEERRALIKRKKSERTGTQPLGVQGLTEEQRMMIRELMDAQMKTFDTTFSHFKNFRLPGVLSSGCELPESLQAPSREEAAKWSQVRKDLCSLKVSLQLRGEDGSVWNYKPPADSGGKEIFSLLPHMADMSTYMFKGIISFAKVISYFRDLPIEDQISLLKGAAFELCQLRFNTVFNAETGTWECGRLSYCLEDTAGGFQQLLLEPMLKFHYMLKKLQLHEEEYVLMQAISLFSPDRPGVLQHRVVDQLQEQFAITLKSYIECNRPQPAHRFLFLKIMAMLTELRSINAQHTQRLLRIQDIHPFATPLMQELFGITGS", "experiment": "Human pregnane X receptor (PXR) activation by small molecules, qHTS assay (AID 1346985); note: nearly all actives have a fitted effect of over 40% in size", "procedure,_shortened": "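DPX-2 cells (HepG2 co-transfected with a PXR response element and a CYP3A4-promoter luciferase construct) were seeded at 2,000 per well, rested 5 hr at 37C, then exposed to DMSO-dissolved compounds for 24 hr. Activation was read as luciferase luminescence.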"}, "[5]": {"target": "Cytochrome P450 2C19 (Homo sapiens) (UniProt P33261)", "sequence (P33261 whole entry, looked up)": "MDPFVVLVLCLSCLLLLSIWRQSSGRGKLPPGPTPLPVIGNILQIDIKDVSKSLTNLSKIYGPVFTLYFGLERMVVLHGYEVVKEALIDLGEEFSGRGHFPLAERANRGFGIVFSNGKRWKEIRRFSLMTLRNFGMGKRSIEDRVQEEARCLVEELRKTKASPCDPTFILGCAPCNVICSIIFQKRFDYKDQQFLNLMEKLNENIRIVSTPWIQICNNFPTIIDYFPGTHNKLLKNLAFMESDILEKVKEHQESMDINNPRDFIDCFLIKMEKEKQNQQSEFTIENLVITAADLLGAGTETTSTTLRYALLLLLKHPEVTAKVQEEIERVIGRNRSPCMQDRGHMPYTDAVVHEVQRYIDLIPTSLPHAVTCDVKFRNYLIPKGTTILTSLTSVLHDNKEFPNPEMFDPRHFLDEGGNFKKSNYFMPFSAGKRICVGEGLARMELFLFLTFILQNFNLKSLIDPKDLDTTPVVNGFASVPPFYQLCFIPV", "experiment": "Cytochrome P450 Family 2 Subfamily C Member 19 (CYP2C19) small molecule antagonists: luciferase reporter qHTS assay (AID 1671197); note: nearly all actives have a fitted effect of over 65% in size", "procedure,_shortened": "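P450-Glo CYP2C19 screening system; proluciferin substrate; DMSO compound stocks; 10 min RT preincubation; NADPH regeneration, 1 h at 37C; luciferin detection reagent, 20 min RT; luminescence as RLU.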"}, "[6]": {"target": "Cytochrome P450 2C9 (Homo sapiens) (UniProt P11712)", "sequence (P11712 whole entry, looked up)": "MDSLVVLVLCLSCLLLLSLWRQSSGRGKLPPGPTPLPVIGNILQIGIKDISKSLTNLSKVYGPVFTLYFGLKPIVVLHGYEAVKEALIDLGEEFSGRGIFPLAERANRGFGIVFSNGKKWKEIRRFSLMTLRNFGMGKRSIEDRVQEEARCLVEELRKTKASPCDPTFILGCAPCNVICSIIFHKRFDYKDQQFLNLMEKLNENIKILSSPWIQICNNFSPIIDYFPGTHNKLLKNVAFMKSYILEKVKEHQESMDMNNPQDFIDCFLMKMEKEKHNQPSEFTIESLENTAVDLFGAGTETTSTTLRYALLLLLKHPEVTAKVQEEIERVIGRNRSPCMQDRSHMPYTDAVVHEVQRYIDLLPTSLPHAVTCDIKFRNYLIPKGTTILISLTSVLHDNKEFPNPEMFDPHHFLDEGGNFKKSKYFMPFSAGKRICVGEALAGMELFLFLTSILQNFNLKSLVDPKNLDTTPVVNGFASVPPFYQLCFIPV", "experiment": "Cytochrome P450 Family 2 Subfamily C Member 9 (CYP2C9) small molecule antagonists: luciferase reporter qHTS assay (AID 1671198); note: nearly all actives have a fitted effect of over 50% in size", "procedure,_shortened": "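CYP2C9 activity was measured with a P450-Glo proluciferin substrate. Enzyme–substrate mix was held with compound for 10 min at room temperature, then NADPH regeneration solution was added for 1 h at 37C. Luciferin product was read as luminescence.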"}, "[7]": {"target": "Cytochrome P450 2D6 (Homo sapiens) (UniProt P10635)", "sequence (P10635 whole entry, looked up)": "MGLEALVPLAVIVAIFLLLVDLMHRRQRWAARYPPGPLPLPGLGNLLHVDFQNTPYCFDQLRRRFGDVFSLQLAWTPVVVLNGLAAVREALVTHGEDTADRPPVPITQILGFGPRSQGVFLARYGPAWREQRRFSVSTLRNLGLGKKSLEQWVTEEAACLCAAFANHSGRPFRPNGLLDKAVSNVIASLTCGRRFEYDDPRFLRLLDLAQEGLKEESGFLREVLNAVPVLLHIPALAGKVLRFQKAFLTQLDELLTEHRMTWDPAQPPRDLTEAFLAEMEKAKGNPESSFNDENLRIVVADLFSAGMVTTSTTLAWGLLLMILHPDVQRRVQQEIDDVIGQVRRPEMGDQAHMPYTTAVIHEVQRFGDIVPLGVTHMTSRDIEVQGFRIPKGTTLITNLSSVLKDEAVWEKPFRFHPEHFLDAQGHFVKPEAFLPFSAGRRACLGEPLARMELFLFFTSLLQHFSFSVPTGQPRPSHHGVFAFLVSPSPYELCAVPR", "experiment": "Cytochrome P450 Family 2 Subfamily D Member 6 (CYP2D6) small molecule antagonists: luciferase reporter qHTS assay (AID 1671196); note: nearly all actives have a fitted effect of over 50% in size", "procedure,_shortened": "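Quantitative HTS of Tox21 chemicals against CYP2D6 using a luminescent proluciferin substrate. After NADPH addition, 1 h room-temperature reaction; luminescence recorded 20 min post detection reagent.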"}, "[8]": {"target": "Cytochrome P450 3A4 (Homo sapiens) (UniProt P08684)", "sequence (P08684 whole entry, looked up)": "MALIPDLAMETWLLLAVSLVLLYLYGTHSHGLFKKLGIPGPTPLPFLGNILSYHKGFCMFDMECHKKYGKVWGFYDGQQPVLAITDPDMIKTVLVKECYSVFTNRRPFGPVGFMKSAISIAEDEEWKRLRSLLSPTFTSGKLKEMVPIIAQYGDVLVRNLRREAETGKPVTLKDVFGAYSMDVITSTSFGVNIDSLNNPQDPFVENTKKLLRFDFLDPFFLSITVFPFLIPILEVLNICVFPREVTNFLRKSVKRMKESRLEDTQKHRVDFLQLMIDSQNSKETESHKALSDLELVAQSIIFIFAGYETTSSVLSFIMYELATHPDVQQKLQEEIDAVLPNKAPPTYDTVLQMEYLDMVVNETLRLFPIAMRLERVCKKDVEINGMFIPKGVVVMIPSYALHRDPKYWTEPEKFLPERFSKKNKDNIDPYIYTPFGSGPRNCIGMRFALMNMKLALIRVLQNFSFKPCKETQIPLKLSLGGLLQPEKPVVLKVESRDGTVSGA", "experiment": "Cytochrome P450 Family 3 Subfamily A Member 4 (CYP3A4) small molecule antagonists: luciferase reporter qHTS assay (AID 1671201); note: nearly all actives have a fitted effect of over 50% in size", "procedure,_shortened": "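qHTS, 1536-well. CYP3A4 + proluciferin substrate, cpd 10 min RT → NADPH regen 1 h RT → detection reagent 20 min → luminescence (RLU). Ketoconazole positive control.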"}, "[9]": {"target": "Nuclear receptor subfamily 1 group I member 2 (Homo sapiens) (UniProt O75469)", "experiment": "Human pregnane X receptor (PXR) small molecule agonists, qHTS assay (AID 1346982); note: nearly all actives have a fitted effect of over 35% in size", "procedure,_shortened": "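After plating in 5% charcoal-stripped FBS and a 5 hr rest, PXR-Luc HepG2 cells received compounds in DMSO. Following 24 hr at 37 C, ONE-Glo was added and light output read.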"}, "[10]": {"target": "Voltage-gated inwardly rectifying potassium channel KCNH2 (Homo sapiens) (UniProt Q12809)", "sequence (Q12809 whole entry, looked up)": "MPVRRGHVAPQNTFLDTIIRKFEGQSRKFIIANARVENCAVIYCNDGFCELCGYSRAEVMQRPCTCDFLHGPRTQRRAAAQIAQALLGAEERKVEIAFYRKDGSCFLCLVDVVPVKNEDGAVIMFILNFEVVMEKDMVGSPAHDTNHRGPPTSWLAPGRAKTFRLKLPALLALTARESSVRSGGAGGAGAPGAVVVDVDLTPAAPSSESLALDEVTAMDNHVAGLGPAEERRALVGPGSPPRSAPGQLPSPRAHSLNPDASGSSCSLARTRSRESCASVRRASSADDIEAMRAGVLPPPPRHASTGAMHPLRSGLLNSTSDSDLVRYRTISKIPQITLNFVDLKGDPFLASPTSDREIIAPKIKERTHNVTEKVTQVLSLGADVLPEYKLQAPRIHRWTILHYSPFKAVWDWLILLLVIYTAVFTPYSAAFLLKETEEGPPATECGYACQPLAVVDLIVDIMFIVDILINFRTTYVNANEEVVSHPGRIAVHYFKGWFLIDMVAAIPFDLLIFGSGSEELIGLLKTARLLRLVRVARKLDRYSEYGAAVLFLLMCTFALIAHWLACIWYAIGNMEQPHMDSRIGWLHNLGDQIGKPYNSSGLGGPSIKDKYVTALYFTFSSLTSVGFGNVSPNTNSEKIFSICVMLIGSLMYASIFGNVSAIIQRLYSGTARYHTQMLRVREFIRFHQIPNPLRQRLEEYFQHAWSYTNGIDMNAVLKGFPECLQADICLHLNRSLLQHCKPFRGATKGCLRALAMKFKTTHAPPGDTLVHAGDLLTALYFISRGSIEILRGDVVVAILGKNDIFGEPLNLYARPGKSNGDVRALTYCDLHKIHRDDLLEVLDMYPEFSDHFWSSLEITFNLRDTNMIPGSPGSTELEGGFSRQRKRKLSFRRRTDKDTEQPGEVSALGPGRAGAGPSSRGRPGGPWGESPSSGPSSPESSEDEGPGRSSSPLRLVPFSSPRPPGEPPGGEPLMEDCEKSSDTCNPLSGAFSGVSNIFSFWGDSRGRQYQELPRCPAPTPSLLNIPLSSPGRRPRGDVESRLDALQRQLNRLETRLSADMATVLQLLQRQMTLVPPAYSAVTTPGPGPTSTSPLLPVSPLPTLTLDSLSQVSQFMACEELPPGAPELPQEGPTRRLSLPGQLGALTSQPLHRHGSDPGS", "experiment": "Human Ether-a-go-go-Related Gene (hERG) channel small molecule antagonists: fluorescence cell-based qHTS assay (AID 1671200); note: nearly all actives have a fitted effect of over 50% in size", "procedure,_shortened": "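Fluorescence at 540 nm emission (480 nm excitation) was recorded kinetically for 2 min at 1-second intervals once the thallium-containing stimulus reached cells previously loaded with FluxOR II dye.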"}, "[11]": {"target": "Cytochrome P450 1A2 (Homo sapiens) (UniProt P05177)", "sequence (P05177 whole entry, looked up)": "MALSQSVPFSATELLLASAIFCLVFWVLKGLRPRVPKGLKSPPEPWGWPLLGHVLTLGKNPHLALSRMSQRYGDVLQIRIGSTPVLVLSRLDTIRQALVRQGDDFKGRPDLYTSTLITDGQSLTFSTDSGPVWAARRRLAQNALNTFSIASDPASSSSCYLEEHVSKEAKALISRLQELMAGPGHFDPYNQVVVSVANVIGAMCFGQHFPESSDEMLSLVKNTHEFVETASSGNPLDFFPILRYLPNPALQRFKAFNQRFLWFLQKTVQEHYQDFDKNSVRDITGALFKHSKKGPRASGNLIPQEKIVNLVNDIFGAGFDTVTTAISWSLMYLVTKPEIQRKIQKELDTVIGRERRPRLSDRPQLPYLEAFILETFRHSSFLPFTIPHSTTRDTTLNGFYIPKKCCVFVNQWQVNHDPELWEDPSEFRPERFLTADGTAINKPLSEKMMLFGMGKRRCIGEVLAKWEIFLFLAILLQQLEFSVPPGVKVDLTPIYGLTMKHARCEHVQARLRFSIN", "experiment": "Cytochrome P450 Family 1 Subfamily A Member 2 (CYP1A2) small molecule antagonists: luciferase reporter qHTS assay (AID 1671199); note: nearly all actives have a fitted effect of over 50% in size", "procedure,_shortened": "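Quantitative high-throughput format using the P450-Glo CYP1A2 system. Reaction initiated by NADPH regeneration solution, 1 h at room temperature, then stopped with detection reagent; luminescence measured 20 min later.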"}}, "note": "“And” between values parts separate entries of the source, which are not always exact repeats. Equal entries are not always repeated. This list was built around the results that the source calls inconclusive (neither active nor inactive); the mix of calls is not that of the screen. For some of these results: Where the call is inconclusive, the potency comes from a doubtful curve fit. A structure can be active in one record and inactive in another. The source made the active and inactive calls. Calls come from the whole dose curve; as a rule, active = well fitted curve in the direction sought with a large enough effect in the repeat runs; inconclusive = weak or mixed curves; inactive = no such curve, though single readings can be large; an effect the other way counts as inactive or inconclusive. Potency is the fitted concentration of half-maximal effect; tags give direction and shape of the fitted curve.", "data": [{"smiles": "CCN(CC)CCOC(=O)C(c1ccccc1)C1CCCCC1", "note": "(centres undefined)", "values": [{"measurement": "Potency", "setting": "[1]", "value": "inconclusive: 33.5 µM [cytotoxic, single point]"}, {"measurement": "Potency", "setting": "[2]", "value": "inconclusive: 33.5 µM [cytotoxic, single point]"}, {"measurement": "Potency", "setting": "[3]", "value": "inconclusive: 33.5 µM [cytotoxic, single point]"}, {"measurement": "Potency", "setting": "[4]", "value": "active: 25.1 µM"}, {"measurement": "Potency", "setting": "[5]", "value": "inconclusive: 38.9 µM [inhibitor, single point]"}, {"measurement": "Potency", "setting": "[6]", "value": "inactive"}]}, {"smiles": "CN(C)CCC(c1ccc(Cl)cc1)c1ccccn1", "note": "(centres undefined)", "values": [{"measurement": "Potency", "setting": "[1]", "value": "inconclusive: 21.7 µM [cytotoxic, full curve]"}, {"measurement": "Potency", "setting": "[2]", "value": "inconclusive: 68.7 µM [cytotoxic, single point]"}, {"measurement": "Potency", "setting": "[3]", "value": "inconclusive: 43.3 µM [cytotoxic, partial curve, poor fit]"}]}, {"smiles": "CC1=C(O)C(=O)OC1C", "note": "(centres undefined)", "values": [{"measurement": "Potency", "setting": "[1]", "value": "inconclusive: 68.6 µM [cytotoxic, single point]"}, {"measurement": "Potency", "setting": "[2]", "value": "inactive"}]}, {"smiles": "CCOc1cc(OCC)c(C(C)=O)cc1OCC", "values": [{"measurement": "Potency", "setting": "[1]", "value": "inconclusive: 26.8 µM [cytotoxic, partial curve]"}, {"measurement": "Potency", "setting": "[3]", "value": "active: 42.5 µM"}, {"measurement": "Potency", "setting": "[7]", "value": "inconclusive: 69.8 µM [inhibitor, partial curve]"}, {"measurement": "Potency", "setting": "[8]", "value": "active: 35 µM"}]}, {"smiles": "O=C(CCN1CCN2CCCC2C1)N1c2ccccc2Sc2ccc(Cl)cc21", "note": "(centres undefined)", "values": [{"measurement": "Potency", "setting": "[1]", "value": "inconclusive: 11.6 µM [cytotoxic, partial curve]"}, {"measurement": "Potency", "setting": "[3]", "value": "inconclusive: 14.6 µM [cytotoxic, partial curve, poor fit]"}, {"measurement": "Potency", "setting": "[9]", "value": "inconclusive: 5.8 µM [activator, single point]"}, {"measurement": "Potency", "setting": "[4]", "value": "active: 12.6 µM"}, {"measurement": "Potency", "setting": "[10]", "value": "inconclusive: 11.7 µM [inhibitor, partial curve, poor fit]"}]}, {"smiles": "CCOc1ccccc1N", "values": [{"measurement": "Potency", "setting": "[1]", "value": "inactive"}, {"measurement": "Potency", "setting": "[2]", "value": "inactive"}, {"measurement": "Potency", "setting": "[6]", "value": "active: 31.5 µM"}, {"measurement": "Potency", "setting": "[11]", "value": "active: 19.9 µM"}, {"measurement": "Potency", "setting": "[10]", "value": "active: 21.7 µM"}]}, {"smiles": "C1CSCCS1", "values": [{"measurement": "Potency", "setting": "[1]", "value": "inconclusive: 68 µM [cytotoxic, single point]"}, {"measurement": "Potency", "setting": "[3]", "value": "inconclusive: 68 µM [rising, single point]"}, {"measurement": "Potency", "setting": "[7]", "value": "inconclusive: 35.3 µM [inhibitor, partial curve]"}, {"measurement": "Potency", "setting": "[6]", "value": "inactive"}, {"measurement": "Potency", "setting": "[11]", "value": "inactive"}]}, {"smiles": "OC[C@H](Cc1cccc(O)c1)[C@H](CO)Cc1cccc(O)c1", "values": [{"measurement": "Potency", "setting": "[1]", "value": "inconclusive: 70.3 µM [cytotoxic, single point]"}, {"measurement": "Potency", "setting": "[2]", "value": "inactive"}, {"measurement": "Potency", "setting": "[7]", "value": "inconclusive: 64.9 µM [inhibitor, partial curve]"}, {"measurement": "Potency", "setting": "[6]", "value": "active: 23 µM"}, {"measurement": "Potency", "setting": "[11]", "value": "inconclusive: 64.9 µM [inhibitor, partial curve]"}, {"measurement": "Potency", "setting": "[10]", "value": "inconclusive: 56.3 µM [inhibitor, single point]"}]}, {"smiles": "CN(C)CCOC1=Cc2ccccc2Sc2ccc(Cl)cc21", "values": [{"measurement": "Potency", "setting": "[1]", "value": "inconclusive: 23.7 µM [cytotoxic, partial curve]"}, {"measurement": "Potency", "setting": "[2]", "value": "inconclusive: 37.6 µM [cytotoxic, single point]"}, {"measurement": "Potency", "setting": "[5]", "value": "inactive"}]}, {"smiles": "c1ccc(-c2nc3ccccc3[nH]2)cc1", "values": [{"measurement": "Potency", "setting": "[1]", "value": "inconclusive: 43.3 µM [cytotoxic, partial curve, poor fit]"}, {"measurement": "Potency", "setting": "[2]", "value": "inconclusive: 61.1 µM [cytotoxic, single point]"}, {"measurement": "Potency", "setting": "[7]", "value": "active: 31.7 µM"}, {"measurement": "Potency", "setting": "[11]", "value": "active: 7.1 µM"}]}, {"smiles": "Cc1cc2c(s1)Nc1ccccc1N=C2N1CCN(C)CC1", "values": [{"measurement": "Potency", "setting": "[1]", "value": "inconclusive: 18.8 µM [cytotoxic, partial curve]"}, {"measurement": "Potency", "setting": "[3]", "value": "inconclusive: 23.7 µM [cytotoxic, partial curve]"}, {"measurement": "Potency", "setting": "[7]", "value": "inactive"}]}, {"smiles": "Cc1ccccc1S(=O)(=O)O", "values": [{"measurement": "Potency", "setting": "[1]", "value": "inactive"}, {"measurement": "Potency", "setting": "[2]", "value": "inactive"}, {"measurement": "Potency", "setting": "[11]", "value": "inactive"}]}, {"smiles": "CC1=C(C)S(=O)(=O)CCS1(=O)=O", "values": [{"measurement": "Potency", "setting": "[1]", "value": "inconclusive: 70.8 µM [cytotoxic, partial curve, poor fit] and inconclusive: 77 µM [cytotoxic, partial curve, poor fit]"}, {"measurement": "Potency", "setting": "[2]", "value": "inconclusive: 67.3 µM [cytotoxic, single point] and inconclusive: 68.6 µM [cytotoxic, single point]"}, {"measurement": "Potency", "setting": "[7]", "value": "inactive"}, {"measurement": "Potency", "setting": "[6]", "value": "inconclusive: 87.8 µM [inhibitor, partial curve, poor fit]"}, {"measurement": "Potency", "setting": "[11]", "value": "inconclusive: 39.2 µM [inhibitor, partial curve] and inactive"}]}, {"smiles": "Nc1cc([N+](=O)[O-])cc(Cl)c1O", "values": [{"measurement": "Potency", "setting": "[1]", "value": "inconclusive: 61.1 µM [cytotoxic, partial curve]"}, {"measurement": "Potency", "setting": "[2]", "value": "inconclusive: 68.6 µM [cytotoxic, single point]"}, {"measurement": "Potency", "setting": "[11]", "value": "inconclusive: 35.6 µM [inhibitor, partial curve]"}, {"measurement": "Potency", "setting": "[8]", "value": "inconclusive: 89.4 µM [inhibitor]"}]}, {"smiles": "CCOc1ccc(N=Nc2ccc(/C=C/c3ccc(N=Nc4ccc(OCC)cc4)cc3S(=O)(=O)O)c(S(=O)(=O)O)c2)cc1", "values": [{"measurement": "Potency", "setting": "[1]", "value": "active: 47.8 µM"}, {"measurement": "Potency", "setting": "[3]", "value": "active: 42.6 µM"}, {"measurement": "Potency", "setting": "[5]", "value": "inactive"}]}, {"smiles": "O=C(O)c1cc(N=Nc2ccc(S(=O)(=O)Nc3ccccn3)cc2)ccc1O", "values": [{"measurement": "Potency", "setting": "[1]", "value": "inconclusive: 30.6 µM [cytotoxic, partial curve] and inconclusive: 26.6 µM [cytotoxic, partial curve]"}, {"measurement": "Potency", "setting": "[3]", "value": "active: 27.4 µM and active: 48.6 µM and active: 23.7 µM"}, {"measurement": "Potency", "setting": "[5]", "value": "inconclusive: 43.6 µM [inhibitor, single point]"}]}]}
